# This is one part of the list.
# B1: SP15308A-bot-339-19-339 (Bacteroides ovatus) (protein)
# chain: ACNNEWEDEQYEQYISFKSPIPAGGEGVTDIYVRYKEDGKVTYRLPIVVSGSTTNTLDREVHIAVDKDTLETLNIERFSIHRPGLWYTALEEDKYDFPKTVHISAGSSVEQLNIDFNLQGIDMLEKWVLPLTIVDDPSYNYKSHPRKNYAKALLRVIPFNNYSGSYTSSAMKVYTYINGKPDTNARTANKRTGYVINDNTVFFYAGLISEDLDKEVREKYKINVHFNEDGTLHMEQGDPTNKMKFELIGTPTYSKTSVMDATRPYLERRYVQIMFEYDFEDFSYGGNGVDVIPIKYKVEGSMTLQRNINTQIPDEDQQIEW
# Legend:
# Assay in all cases: glycan array binding signal (z-score within array); higher = stronger binding
# Settings in all cases: glycan notation: IUPAC condensed, linker removed
# Glc(b1-6)Glc = target: Glc(b1-6)Glc
# Outline: (§1)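 Glycan array binding is given as a within-array Z-score, which can be read as non-binding when negative. The arrays, 3228 of them, came from the Consortium for Functional Glycomics database and were retained only where the protein sequence was available. Z-scores were averaged across arrays of the same protein sequence at different concentrations or buffers and across linkers.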
# GlcA(b1-3)Gal = target: GlcA(b1-3)Gal
# Outline: as §1
# GlcA(b1-3)GlcNAc = target: GlcA(b1-3)GlcNAc
# Outline: as §1
# GlcA(b1-6)Gal = target: GlcA(b1-6)Gal
# Outline: as §1
# [1] = target: GlcA3S(b1-3)Gal(b1-4)GlcNAc(b1-2)Man
# Outline: as §1
# [2] = target: GlcA3S(b1-3)Gal(b1-4)GlcNAc(b1-3)Gal(b1-4)Glc
# Outline: as §1
# [3] = target: GlcNAc(a1-3)Gal(b1-4)GlcNAc
# Outline: as §1
# [4] = target: GlcNAc(a1-4)Gal(b1-3)GlcNAc
# Outline: as §1
# [5] = target: GlcNAc(a1-4)Gal(b1-4)GalNAc
# Outline: as §1
# [6] = target: GlcNAc(a1-4)Gal(b1-4)GlcNAc
# Outline: as §1
# [7] = target: GlcNAc(a1-4)Gal(b1-4)GlcNAc(b1-3)Gal(b1-4)Glc
# Outline: as §1
# [8] = target: GlcNAc(a1-4)Gal(b1-4)GlcNAc(b1-3)Gal(b1-4)GlcNAc
# Outline: as §1
# [9] = target: GlcNAc(a1-4)Gal(b1-4)GlcNAc(b1-3)Gal(b1-4)GlcNAc(b1-3)Gal(b1-4)GlcNAc
# Outline: as §1
# [10] = target: GlcNAc(a1-4)Gal(b1-4)GlcNAc(b1-3)Gal(b1-4)[Fuc(a1-3)]GlcNAc(b1-3)Gal(b1-4)[Fuc(a1-3)]GlcNAc
# Outline: as §1
# [11] = target: GlcNAc(a1-6)Gal(b1-4)GlcNAc
# Outline: as §1
# [12] = target: GlcNAc(b1-2)Gal(b1-3)GalNAc
# Outline: as §1
# [13] = target: GlcNAc(b1-2)Man(a1-3)[GlcNAc(b1-2)Man(a1-6)]Man(b1-4)GlcNAc(b1-4)GlcNAc
# Outline: as §1
# [14] = target: GlcNAc(b1-2)Man(a1-3)[GlcNAc(b1-2)Man(a1-6)]Man(b1-4)GlcNAc(b1-4)[Fuc(a1-6)]GlcNAc
# Outline: as §1
# [15] = target: GlcNAc(b1-2)Man(a1-3)[GlcNAc(b1-4)][GlcNAc(b1-2)Man(a1-6)]Man(b1-4)GlcNAc(b1-4)GlcNAc
# Outline: as §1
# [16] = target: GlcNAc(b1-2)Man(a1-3)[GlcNAc(b1-4)][GlcNAc(b1-2)Man(a1-6)]Man(b1-4)GlcNAc(b1-4)[Fuc(a1-6)]GlcNAc
# Outline: as §1
# [17] = target: GlcNAc(b1-2)[GlcNAc(b1-4)]Man(a1-3)[GlcNAc(b1-2)Man(a1-6)]Man(b1-4)GlcNAc(b1-4)GlcNAc
# Outline: as §1
# [18] = target: GlcNAc(b1-2)[GlcNAc(b1-4)]Man(a1-3)[GlcNAc(b1-4)][GlcNAc(b1-2)Man(a1-6)]Man(b1-4)GlcNAc(b1-4)GlcNAc
# Outline: as §1
# [19] = target: GlcNAc(b1-2)[GlcNAc(b1-4)]Man(a1-3)[GlcNAc(b1-4)][GlcNAc(b1-2)[GlcNAc(b1-6)]Man(a1-6)]Man(b1-4)GlcNAc(b1-4)GlcNAc
# Outline: as §1
# [20] = target: GlcNAc(b1-2)[GlcNAc(b1-4)]Man(a1-3)[GlcNAc(b1-4)][GlcNAc(b1-2)[GlcNAc(b1-6)]Man(a1-6)]Man(b1-4)GlcNAc(b1-4)[Fuc(a1-6)]GlcNAc
# Outline: as §1
# [21] = target: GlcNAc(b1-2)[GlcNAc(b1-6)]Man(a1-6)[GlcNAc(b1-2)Man(a1-3)]Man(b1-4)GlcNAc(b1-4)GlcNAc
# Outline: as §1
# [22] = target: GlcNAc(b1-2)[GlcNAc(b1-6)]Man(a1-6)[GlcNAc(b1-2)Man(a1-3)]Man(b1-4)GlcNAc(b1-4)[Fuc(a1-6)]GlcNAc
# Outline: as §1
# [23] = target: GlcNAc(b1-2)[GlcNAc(b1-6)]Man(a1-6)[GlcNAc(b1-4)][GlcNAc(b1-2)Man(a1-3)]Man(b1-4)GlcNAc(b1-4)GlcNAc
# Outline: as §1
# GlcNAc(b1-3)Fuc = target: GlcNAc(b1-3)Fuc
# Outline: as §1
# GlcNAc(b1-3)Gal = target: GlcNAc(b1-3)Gal
# Outline: as §1
# [24] = target: GlcNAc(b1-3)Gal(b1-3)GalNAc
# Outline: as §1
# GlcNAc(b1-3)Gal(b1-4)Glc = target: GlcNAc(b1-3)Gal(b1-4)Glc
# Outline: as §1
# [25] = target: GlcNAc(b1-3)Gal(b1-4)GlcNAc
# Outline: as §1
# [26] = target: GlcNAc(b1-3)Gal(b1-4)GlcNAc(b1-2)Man(a1-3)[GlcNAc(b1-3)Gal(b1-4)GlcNAc(b1-2)Man(a1-6)]Man(b1-4)GlcNAc(b1-4)GlcNAc
# Outline: as §1
# [27] = target: GlcNAc(b1-3)Gal(b1-4)GlcNAc(b1-2)Man(a1-3)[GlcNAc(b1-3)Gal(b1-4)GlcNAc(b1-2)Man(a1-6)]Man(b1-4)GlcNAc(b1-4)[Fuc(a1-6)]GlcNAc
# Outline: as §1
# [28] = target: GlcNAc(b1-3)Gal(b1-4)GlcNAc(b1-2)[GlcNAc(b1-3)Gal(b1-4)GlcNAc(b1-6)]Man(a1-6)[GlcNAc(b1-3)Gal(b1-4)GlcNAc(b1-2)Man(a1-3)]Man(b1-4)GlcNAc(b1-4)GlcNAc
# Outline: as §1
# [29] = target: GlcNAc(b1-3)Gal(b1-4)GlcNAc(b1-3)Gal(b1-4)GlcNAc
# Outline: as §1
# [30] = target: GlcNAc(b1-3)Gal(b1-4)GlcNAc(b1-3)Gal(b1-4)GlcNAc(b1-2)Man(a1-3)[GlcNAc(b1-3)Gal(b1-4)GlcNAc(b1-3)Gal(b1-4)GlcNAc(b1-2)Man(a1-6)]Man(b1-4)GlcNAc(b1-4)GlcNAc
# Outline: as §1
binder,measurement,setting,value
B1,glycan array binding signal (z-score),Glc(b1-6)Glc,-0.042
same,glycan array binding signal (z-score),GlcA(b1-3)Gal,0.164
same,glycan array binding signal (z-score),GlcA(b1-3)GlcNAc,-0.486
same,glycan array binding signal (z-score),GlcA(b1-6)Gal,0.866
same,glycan array binding signal (z-score),[1],0.245
same,glycan array binding signal (z-score),[2],-0.574
same,glycan array binding signal (z-score),[3],0.267
same,glycan array binding signal (z-score),[4],-0.025
same,glycan array binding signal (z-score),[5],0.024
same,glycan array binding signal (z-score),[6],-0.275
same,glycan array binding signal (z-score),[7],0.185
same,glycan array binding signal (z-score),[8],-0.188
same,glycan array binding signal (z-score),[9],-0.27
same,glycan array binding signal (z-score),[10],0.595
same,glycan array binding signal (z-score),[11],-0.122
same,glycan array binding signal (z-score),[12],0.906
same,glycan array binding signal (z-score),[13],-0.386
same,glycan array binding signal (z-score),[14],0.166
same,glycan array binding signal (z-score),[15],-0.365
same,glycan array binding signal (z-score),[16],-0.474
same,glycan array binding signal (z-score),[17],-0.083
same,glycan array binding signal (z-score),[18],1.11
same,glycan array binding signal (z-score),[19],-0.391
same,glycan array binding signal (z-score),[20],-0.358
same,glycan array binding signal (z-score),[21],-0.299
same,glycan array binding signal (z-score),[22],-0.15
same,glycan array binding signal (z-score),[23],0.157
same,glycan array binding signal (z-score),GlcNAc(b1-3)Fuc,0.371
same,glycan array binding signal (z-score),GlcNAc(b1-3)Gal,-0.64
same,glycan array binding signal (z-score),[24],-0.206
same,glycan array binding signal (z-score),GlcNAc(b1-3)Gal(b1-4)Glc,0.17
same,glycan array binding signal (z-score),[25],-0.233
same,glycan array binding signal (z-score),[26],-0.006
same,glycan array binding signal (z-score),[27],0.083
same,glycan array binding signal (z-score),[28],0.155
same,glycan array binding signal (z-score),[29],0.055
same,glycan array binding signal (z-score),[30],0.131
